Reference: US20040002425A1, “Triketone derivatives and herbicides” (Idemitsu Kosan Co., Ltd., priority 1998, published 2004)
The name of at least one read-out is uncertain.

Tests used:
Echinochloa crug-galli [1] = test: Biological Test 1 (soaking in water/treatment on the 3rd day after transplantation): weed-killing effect on barnyard grass; format: in vivo, Echinochloa crus-galli; conditions: Treatment performed 3 days after transplantation, examined on the 30th day after treatment
Echinochloa crug-galli [2] = test: Biological Test 2 (soaking in water/treatment on the 10th day after transplantation): weed-killing effect on barnyard grass; format: in vivo, Echinochloa crus-galli; conditions: Treatment performed 10 days after transplantation, examined on the 30th day after treatment
Scirups juncoides [3] = test: Biological Test 2 (soaking in water/treatment on the 10th day after transplantation): weed-killing effect on Scirups juncoides; format: in vivo, Scirpus juncoides; conditions: Treatment performed 10 days after transplantation, examined on the 30th day after treatment
Scirups juncoides [4] = test: Biological Test 1 (soaking in water/treatment on the 3rd day after transplantation): weed-killing effect on Scirups juncoides; format: in vivo, Scirpus juncoides; conditions: Treatment performed 3 days after transplantation, examined on the 30th day after treatment

SMILES	Weed-killing effect, Echinochloa crug-galli (Echinochloa crug-galli [1]; dose 100 g/ha)	Weed-killing effect, Echinochloa crug-galli (Echinochloa crug-galli [1]; dose 200 g/ha)	Weed-killing effect, Echinochloa crug-galli (Echinochloa crug-galli [2]; dose 100 g/ha)	Weed-killing effect, Echinochloa crug-galli (Echinochloa crug-galli [2]; dose 200 g/ha)	Weed-killing effect, Scirups juncoides (Scirups juncoides [3]; dose 100 g/ha)	Weed-killing effect, Scirups juncoides (Scirups juncoides [3]; dose 200 g/ha)	Weed-killing effect, Scirups juncoides (Scirups juncoides [4]; dose 100 g/ha)	Weed-killing effect, Scirups juncoides (Scirups juncoides [4]; dose 200 g/ha)
CC1CC(C)(C)C(=O)C(C(=O)c2ccc3c(c2Cl)CCS3(=O)=O)=C1O (stereo not drawn) [A-13, 4-chloro-5-(4,4,6-trimethyl-1,3-dioxocyclohexan-2-yl)carbonyl-2,3-dihydrobenzothiophene-1,1-dioxide]	5 (90% or more (almost completely withered))	5 (90% or more (almost completely withered))	5 (90% or more (almost completely withered))	5 (90% or more (almost completely withered))	5 (90% or more (almost completely withered))	5 (90% or more (almost completely withered))	5 (90% or more (almost completely withered))	5 (90% or more (almost completely withered))
CC1CC(C)C(O)=C(C(=O)c2ccc3c(c2Cl)CCS3(=O)=O)C1=O (stereo not drawn) [A-14, 4-chloro-5-(4,6-dimethyl-1,3-dioxocyclohexan-2-yl)carbonyl-2,3-dihydrobenzothiophene-1,1-dioxide]	5 (90% or more (almost completely withered))	5 (90% or more (almost completely withered))	5 (90% or more (almost completely withered))	5 (90% or more (almost completely withered))	5 (90% or more (almost completely withered))	5 (90% or more (almost completely withered))	5 (90% or more (almost completely withered))	5 (90% or more (almost completely withered))
CC1(C)CC(C)(C)C(=O)C(C(=O)c2ccc3c(c2Cl)CCS3(=O)=O)C1=O [A-15, 4-chloro-5-(4,4,6,6-tetramethyl-1,3-dioxocyclohexan-2-yl)carbonyl-2,3-dihydrobenzothiophene-1,1-dioxide]	5 (90% or more (almost completely withered))	5 (90% or more (almost completely withered))	5 (90% or more (almost completely withered))	5 (90% or more (almost completely withered))	5 (90% or more (almost completely withered))	5 (90% or more (almost completely withered))	5 (90% or more (almost completely withered))	5 (90% or more (almost completely withered))
CC1CC(O)=C(C(=O)c2ccc3c(c2Cl)CCS3(=O)=O)C(=O)C1C (stereo not drawn) [A-16, 4-chloro-5-(4,5-dimethyl-1,3-dioxocyclohexan-2-yl)carbonyl-2,3-dihydrobenzothiophene-1,1-dioxide]	5 (90% or more (almost completely withered))	5 (90% or more (almost completely withered))	5 (90% or more (almost completely withered))	5 (90% or more (almost completely withered))	5 (90% or more (almost completely withered))	5 (90% or more (almost completely withered))	5 (90% or more (almost completely withered))	5 (90% or more (almost completely withered))
CC1Cc2c(ccc(C(=O)C3=C(O)CCCC3=O)c2Cl)S1(=O)=O (stereo not drawn) [A-17, 4-chloro-2-methyl-5-(1,3-dioxocyclohexan-2-yl)carbonyl-2,3-dihydrobenzothiophene-1,1-dioxide]	3 (40% or more and less than 70%)	4 (70% or more and less than 90%)	3 (40% or more and less than 70%)	4 (70% or more and less than 90%)	4 (70% or more and less than 90%)	4 (70% or more and less than 90%)	4 (70% or more and less than 90%)	5 (90% or more (almost completely withered))
COc1c(C(=O)C2=C(O)CCCC2=O)ccc2c1CC(C)S2(=O)=O (stereo not drawn) [A-18, 4-methoxy-2-methyl-5-(1,3-dioxocyclohexan-2-yl)carbonyl-2,3-dihydrobenzothiophene-1,1-dioxide]	3 (40% or more and less than 70%)	4 (70% or more and less than 90%)	2 (20% or more and less than 40%)	3 (40% or more and less than 70%)	4 (70% or more and less than 90%)	4 (70% or more and less than 90%)	4 (70% or more and less than 90%)	4 (70% or more and less than 90%)
O=C1CCCC([O-])=C1C(=O)c1ccc2c(c1Cl)CCS2(=O)=O.[Na+] [A-19, Sodium Salt of 4-chloro-5-(1,3-dioxocyclohexan-2-yl)carbonyl-2,3-dihydrobenzothiophene-1,1-dioxide]	5 (90% or more (almost completely withered))	5 (90% or more (almost completely withered))	5 (90% or more (almost completely withered))	5 (90% or more (almost completely withered))	5 (90% or more (almost completely withered))	5 (90% or more (almost completely withered))	5 (90% or more (almost completely withered))	5 (90% or more (almost completely withered))
O=C1CCCC(=O)C1C(=O)c1ccc2c(c1Br)CCS2(=O)=O [A-20, 4-bromo-5-(1,3-dioxocyclohexan-2-yl)carbonyl-2,3-dihydrobenzothiophene-1,1-dioxide]	5 (90% or more (almost completely withered))	5 (90% or more (almost completely withered))	5 (90% or more (almost completely withered))	5 (90% or more (almost completely withered))	5 (90% or more (almost completely withered))	5 (90% or more (almost completely withered))	5 (90% or more (almost completely withered))	5 (90% or more (almost completely withered))
N#Cc1c(C(=O)C2C(=O)CCCC2=O)ccc2c1CCS2(=O)=O [A-21, 4-cyano-5-(1,3-dioxocyclohexan-2-yl)carbonyl-2,3-dihydrobenzothiophene-1,1-dioxide]	5 (90% or more (almost completely withered))	5 (90% or more (almost completely withered))	5 (90% or more (almost completely withered))	5 (90% or more (almost completely withered))	5 (90% or more (almost completely withered))	5 (90% or more (almost completely withered))	5 (90% or more (almost completely withered))	5 (90% or more (almost completely withered))
